Data on 90 compounds can be found in article PMC4336329 (PLoS ONE, 2015).

Among all 310,000 compounds or so, about 2,200 (0.71%) showed an effect of 50% or more. The effect is printed as a negative number. This is one part of the list.

Sequence of human ether-à-go-go-related gene (hERG) potassium channel (Q12809 whole entry, looked up): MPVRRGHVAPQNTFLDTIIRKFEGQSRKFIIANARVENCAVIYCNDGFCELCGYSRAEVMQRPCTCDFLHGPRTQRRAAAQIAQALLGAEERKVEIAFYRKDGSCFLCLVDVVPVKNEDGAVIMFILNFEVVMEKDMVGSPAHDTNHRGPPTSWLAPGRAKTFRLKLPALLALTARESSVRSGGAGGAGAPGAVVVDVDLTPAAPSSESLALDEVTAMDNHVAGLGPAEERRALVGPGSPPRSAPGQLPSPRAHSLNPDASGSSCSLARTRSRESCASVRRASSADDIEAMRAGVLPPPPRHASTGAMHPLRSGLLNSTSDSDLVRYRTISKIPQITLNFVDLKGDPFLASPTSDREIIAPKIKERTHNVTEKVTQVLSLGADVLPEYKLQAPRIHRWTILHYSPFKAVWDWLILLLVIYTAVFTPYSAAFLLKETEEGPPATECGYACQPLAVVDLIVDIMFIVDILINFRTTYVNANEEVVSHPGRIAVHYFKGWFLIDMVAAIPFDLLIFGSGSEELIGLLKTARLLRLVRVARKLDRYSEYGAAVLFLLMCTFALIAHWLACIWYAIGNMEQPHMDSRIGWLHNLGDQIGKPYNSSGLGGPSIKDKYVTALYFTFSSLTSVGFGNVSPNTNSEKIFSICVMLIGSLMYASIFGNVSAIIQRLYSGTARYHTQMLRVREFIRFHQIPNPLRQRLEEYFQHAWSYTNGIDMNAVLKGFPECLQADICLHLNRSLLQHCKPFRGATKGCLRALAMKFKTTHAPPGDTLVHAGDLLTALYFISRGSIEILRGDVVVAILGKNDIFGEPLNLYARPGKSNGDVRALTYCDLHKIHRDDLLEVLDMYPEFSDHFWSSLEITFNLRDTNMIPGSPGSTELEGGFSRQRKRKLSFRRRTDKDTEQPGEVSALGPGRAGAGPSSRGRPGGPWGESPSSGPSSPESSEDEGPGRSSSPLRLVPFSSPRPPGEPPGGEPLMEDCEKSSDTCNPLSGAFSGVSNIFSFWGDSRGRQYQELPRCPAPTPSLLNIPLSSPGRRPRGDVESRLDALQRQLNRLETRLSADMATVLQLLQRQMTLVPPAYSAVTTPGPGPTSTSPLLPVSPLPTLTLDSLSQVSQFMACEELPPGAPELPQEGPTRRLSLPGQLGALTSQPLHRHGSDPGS

The assay addresses human ether-à-go-go-related gene (hERG) potassium channel (human, UniProt Q12809). As to the kind of experiment: primary screen, population patch clamp on CHO cells stably expressing hERG.
As for `COCCCNC(=O)Cn1c(=O)oc2cc(S(=O)(=O)N3CC(C)CC(C)C3)ccc21` (stereo not drawn), the “hERG current change (%, negative = inhibition) at 1uM” value is listed as 17.5%.
With `O=C(c1ccco1)N1CCC(c2nc(-c3ccccc3Cl)no2)CC1`, the “hERG current change (%, negative = inhibition) at 1uM” value stood at 1.24%.
As for `CCN(CC)c1ccc(/C=N/NC(=O)c2cc3ccccc3[nH]2)cc1`, the “hERG current change (%, negative = inhibition) at 1uM” value was 10.5%.
For `Cc1ccccc1N(C(=O)Cc1c[nH]c2ccccc12)C(C(=O)NC1CCCCC1)c1ccco1` (stereo not drawn) the value was 3.81%.
As for `CC(C)CN(C(=O)COC(=O)c1ccccn1)c1c(N)n(Cc2ccccc2)c(=O)[nH]c1=O`, the “hERG current change (%, negative = inhibition) at 1uM” value stood at 1.21%.
As for `Cc1nc(NS(=O)(=O)c2ccccc2)sc1C(=O)N/N=C/c1ccccc1`, the “hERG current change (%, negative = inhibition) at 1uM” value is reported as -2.87%.
Regarding `Cc1ccc(N2CCN(c3ccc(NC(=O)CCC(=O)O)cc3)CC2)cc1`, the “hERG current change (%, negative = inhibition) at 1uM” value came to 9.13%.
With `CCOC(=O)C1(CC2CC2)CCN(S(=O)(=O)C[C@]23CC[C@H](CC2=O)C3(C)C)CC1` the figure was 6.16%; with `O=[N+]([O-])c1ccccc1CSc1ccccn1`, 17%.
Take `OC(CNC1CCCCC1)CNC1CCCCC1`: the “hERG current change (%, negative = inhibition) at 1uM” value came out at 6.88%.
For the compound `Cc1c(CCO)c(=O)[nH]n1S(=O)(=O)c1ccc(F)cc1`, the “hERG current change (%, negative = inhibition) at 1uM” value is reported as 5.88%.
Regarding `CCN(CC)CCN(C(=O)c1ccc2ccccc2c1)c1nc2cc3c(cc2s1)OCO3.Cl`, the “hERG current change (%, negative = inhibition) at 1uM” value was 0.509%.
With `CCOc1ccc(Oc2nc(C)cc(OC)n2)nn1`, the “hERG current change (%, negative = inhibition) at 1uM” value is on record as -3.57%.
Consider `Cn1c(N)c(C(=O)COC(=O)[C@H](Cc2ccccc2)N2C(=O)c3ccccc3C2=O)c(=O)n(C)c1=O`, for which the “hERG current change (%, negative = inhibition) at 1uM” value was determined as 13.8%.
For the compound `CCCOc1ccc(CN(CCC#N)C(=S)NC(=O)c2ccccc2)cc1`, the “hERG current change (%, negative = inhibition) at 1uM” value was 5.23%.
`Cc1ccccc1C(=O)Nc1ccnn1C1CCN(Cc2ccccn2)CC1`: the “hERG current change (%, negative = inhibition) at 1uM” value is given as -14.6%.
On to `C=CCSc1n[nH]c(-c2ccc(OCCC)cc2)n1`, for which the “hERG current change (%, negative = inhibition) at 1uM” value turned out to be 7.2%.
Consider `CC1C(=O)CCC1(C(=O)O)c1ccccc1` (stereo not drawn), for which the “hERG current change (%, negative = inhibition) at 1uM” value came to 13.7%.
Consider `O=C(Nc1ccc2c(c1)C(=O)NC2=O)c1ccc(S(=O)(=O)N2CCCC2)cc1`, for which the “hERG current change (%, negative = inhibition) at 1uM” value is on record as 8.71%.
For `Cc1cccc(C)c1NC(=O)CCCSc1nnnn1C` the value was 11.8%; for `C=CCN1CCN(C(=O)c2ccc(-c3ccccc3)cc2)CC1`, 13.3%.
Regarding `COc1cc2c(cc1OC)-c1cc(NC3CCCCCC3)nc(=O)n1CC2`, the “hERG current change (%, negative = inhibition) at 1uM” value came to 3.43%.
As for `S=C(NCCN1CCOCC1)Nc1ccc(Cl)cc1`, the “hERG current change (%, negative = inhibition) at 1uM” value is given as 6.9%.
With `O=C(NCc1ccncc1)c1cccc(NS(=O)(=O)c2ccc(F)c(F)c2)c1`, the “hERG current change (%, negative = inhibition) at 1uM” value was -7.88%.
For `O=C(COC(=O)C1CCN(c2ccc(C(F)(F)F)cn2)CC1)c1ccccc1Cl`, the “hERG current change (%, negative = inhibition) at 1uM” value turned out to be 14.3%.
With `CCOc1ccc(CNC(=O)CCC(=O)N2CCSc3ccccc32)cc1` the figure was 3.97%; with `CCN1C(C(=O)c2ccccc2)=C(Nc2ccccc2C)c2ccccc2S1(=O)=O`, 5.96%.
As to `CC1(C)Cc2nc3sc4c(=O)n(CC(N)=O)cnc4c3cc2CO1`, the “hERG current change (%, negative = inhibition) at 1uM” value is on record as 8.19%.
For `Cc1nc(-c2ccc(S(=O)(=O)N3CCN(Cc4ccccc4)CC3)s2)cs1`, the “hERG current change (%, negative = inhibition) at 1uM” value is recorded as 6.56%.
Turning to `Cc1cc(Cl)cc2sc(NC(=O)C3CC3)nc12`, the “hERG current change (%, negative = inhibition) at 1uM” value is recorded as 4.55%.
Take `CCOC(=O)c1ccc(N2C(=O)C(O)=C(C(C)=O)C2c2ccc([N+](=O)[O-])cc2)cc1` (stereo not drawn): the “hERG current change (%, negative = inhibition) at 1uM” value is 7.54%.
For `O=C(Nc1ccccc1)c1ccccc1CC[N+](=O)[O-]` the value was 9.19%; for `COc1ccc(-c2csc(NC(=O)C3CCCO3)n2)cc1` (stereo not drawn), 11.5%; for `CCOC(=O)Nc1ccc2c(c1)N(C(=O)CCN(CC)CC)c1ccccc1S2=O.Cl` (stereo not drawn), 5.41%.
With `CCCOc1ccc2c3c(c(=O)oc2c1OCCC)CCCC3`, the “hERG current change (%, negative = inhibition) at 1uM” value came to 8.28%.
As for `O=C(COC(=O)c1ccccn1)Nc1ncc(C(F)(F)F)cc1Cl`, the “hERG current change (%, negative = inhibition) at 1uM” value is reported as -9.94%.
Regarding `CC1(C)Cc2nc3sc4c(SCC(=O)NC(c5ccccc5)c5ccccc5)ncnc4c3cc2CO1`, the “hERG current change (%, negative = inhibition) at 1uM” value was determined as 11.9%.
Turning to `CCCCCCCCN1C(=O)C(O)=C(C(C)=O)C1c1ccccn1` (stereo not drawn), the “hERG current change (%, negative = inhibition) at 1uM” value was found to be 9.81%.
With `Cc1ccc(Cl)cc1N(CC(=O)NCc1ccccc1)S(C)(=O)=O` the figure was 18%; with `Cc1cc(=O)oc2cc(OCC(=O)NC3CC(C)(C)NC(C)(C)C3)ccc12`, -7.79%.
In the case of `CCCCn1c(N)c(N(CCOC)C(=O)c2c(C)noc2C)c(=O)[nH]c1=O`, the “hERG current change (%, negative = inhibition) at 1uM” value is listed as 13.1%.
With `COc1cccc(NC(=O)COc2ccc(C)cc2)c1` the figure was 5.59%.
Turning to `Cc1ccc(N)c(C(=O)c2ccc(Br)cc2)c1`, the “hERG current change (%, negative = inhibition) at 1uM” value is 12.9%.
Consider `CCOC(=O)N1CCC(NC2CCCCCCC2)CC1`, for which the “hERG current change (%, negative = inhibition) at 1uM” value is listed as -3.76%.
Take `CC1(C)CC(O)CC(C)(C)N1CC(O)COCc1ccccc1` (stereo not drawn): the “hERG current change (%, negative = inhibition) at 1uM” value was 13.1%.
As to `COc1ccccc1NS(=O)(=O)c1ccc2c(c1)CCN2C(=O)CCC(=O)O`, the “hERG current change (%, negative = inhibition) at 1uM” value is 14.4%.
With `O=C1C([N+](=O)[O-])=C(O)c2cccc3cccc1c23`, the “hERG current change (%, negative = inhibition) at 1uM” value is listed as 11.4%.
Regarding `ClCc1cc2ccccc2nc1Cl`, the “hERG current change (%, negative = inhibition) at 1uM” value is listed as 6.94%.
With `COc1ccc(CCn2c(=O)[nH]c3cc(C(=O)NCCCN4CCOCC4)ccc3c2=O)cc1OC`, the “hERG current change (%, negative = inhibition) at 1uM” value came to 15.7%.
On to `COc1cc(C=O)ccc1Oc1nnnn1-c1ccccc1`, for which the “hERG current change (%, negative = inhibition) at 1uM” value stood at 14.5%.
In the case of `CC1(C)OC(=O)C(=CNc2cccc(O)c2)C(=O)O1`, the “hERG current change (%, negative = inhibition) at 1uM” value amounted to 14.2%.
As to `Cc1cc(C)c(NC(=O)CSc2nc3ccncc3[nH]2)c(C)c1`, the “hERG current change (%, negative = inhibition) at 1uM” value is given as 15.8%.
For the compound `CCc1cc(=O)oc2cc(C)cc(OC(C)C(=O)NCCN3CCOCC3)c12` (stereo not drawn), the “hERG current change (%, negative = inhibition) at 1uM” value amounted to 8.13%.
With `Cn1cc(Cl)c(-c2nc3ccccc3[nH]2)n1`, the “hERG current change (%, negative = inhibition) at 1uM” value is listed as -3.35%.
For the compound `CCCNC(=O)c1ccc(S(=O)(=O)c2ccc(OC)cc2)c([N+](=O)[O-])c1`, the “hERG current change (%, negative = inhibition) at 1uM” value stood at 7.6%.
For `C=CCNS(=O)(=O)c1ccc(N2C(=O)c3ccccc3C2=O)cc1` the value was 5.61%; for `COc1ccc(-c2noc(N3CCC(C(=O)Nc4ccccc4F)CC3)n2)cc1`, 2.56%.
For `O=C(c1ccc(F)cc1)N1CCN(C(=O)c2cccnc2)CC1` the value was 7.53%; for `O=C(CSc1ccccc1)NCCc1ccc(F)cc1`, 10.7%; for `CC(C)NC(=O)c1onc(CSc2ccccc2F)c1C(=O)O`, 15%.
In the case of `COc1ccc(/C=C/C2=CC(C)(C)NC(=S)N2)cc1`, the “hERG current change (%, negative = inhibition) at 1uM” value amounted to 13.4%.
For `N#Cc1ccc(OCC(=O)NCCN2CCOCC2)cc1`, the “hERG current change (%, negative = inhibition) at 1uM” value turned out to be 8.41%.
With `O=C(Nn1cnnc1)c1ccccc1-c1ccccc1` the figure was 3.17%; with `CCOC(=O)C[C@H]1c2cc(F)ccc2S(=O)(=O)N1C(C)(C)C`, 9.82%; with `COc1cc(NC(=O)c2cc3nc(-c4ccccc4)cc(-c4ccccc4)n3n2)cc(OC)c1OC`, 11.6%.
As for `COc1ccccc1CNC(=O)CSc1ccccc1`, the “hERG current change (%, negative = inhibition) at 1uM” value came to 16.8%.
In the case of `CCn1ncc(Cl)c1C(=O)Nc1cc(Cl)ccc1Cl`, the “hERG current change (%, negative = inhibition) at 1uM” value worked out at 5.15%.
Regarding `CC(C)(C)C(=O)NC(=S)Nc1ccccc1C(=O)Nc1ccccc1`, the “hERG current change (%, negative = inhibition) at 1uM” value turned out to be 5.47%.
As for `Nc1ccc(Oc2ccccc2-c2ccccc2)cc1`, the “hERG current change (%, negative = inhibition) at 1uM” value is 7.54%.
With `COc1ccccc1NS(=O)(=O)c1cc(NC(=O)c2cccs2)ccc1N1CCCC1`, the “hERG current change (%, negative = inhibition) at 1uM” value is reported as 9.95%.
`COC(=O)C1=NN(c2ccc(Cl)cc2)C2C(=O)N(c3ccccc3OC)C(=O)C12` (stereo not drawn): the “hERG current change (%, negative = inhibition) at 1uM” value amounted to 8.05%.
For the compound `O=C(NCc1ccccc1)C(c1ccco1)N(C(=O)c1csnn1)c1ccccc1` (stereo not drawn), the “hERG current change (%, negative = inhibition) at 1uM” value is 9.93%.
With `Cc1ccccc1C(=O)N1CCN(CCNC(=O)C(=O)Nc2ccc(Br)cc2)CC1`, the “hERG current change (%, negative = inhibition) at 1uM” value was -22.9%.
With `CN1C=CC=C/C1=C1/N=C(c2ccccc2)OC1=O` the figure was 17.2%.
For `CN(C)CCN(C(=O)c1ccc(Br)s1)c1nc2cc3c(cc2s1)OCCO3.Cl` the value was 12.1%.
For `CCOC(=O)c1cn[nH]c1NC(=S)Nc1ccc(Cl)cc1`, the “hERG current change (%, negative = inhibition) at 1uM” value is recorded as 12.7%.
On to `Clc1ccc(CSc2nnc(-c3ccccn3)n2Cc2ccco2)c(Cl)c1`, for which the “hERG current change (%, negative = inhibition) at 1uM” value came out at 3.72%.
As to `Cc1cc2c(cc1C)[n+](C)cn2CC(O)COCc1ccccc1.[I-]` (stereo not drawn), the “hERG current change (%, negative = inhibition) at 1uM” value is listed as 9.69%.
On to `CC(C)C(c1nnnn1C(C)(C)C)N1CCC(Cc2ccccc2)CC1` (stereo not drawn), for which the “hERG current change (%, negative = inhibition) at 1uM” value is recorded as 6.44%.
On to `O=C(COc1ccc([N+](=O)[O-])cc1Cl)N1CCOCC1`, for which the “hERG current change (%, negative = inhibition) at 1uM” value was 14.7%.
With `Cc1ccccc1-n1c(SC2CCOC2=O)nnc1-c1ccncc1` (stereo not drawn) the figure was 1.13%; with `CC(=O)N1c2ccc(S(=O)(=O)N3CCCC3)cc2CC1C(=O)NCc1cccc(F)c1` (stereo not drawn), 7.57%; with `O=C(O)CCC(=O)c1ccc(-c2ccccc2)cc1`, -6.21%.
For `CCCCN(Cc1ccccc1)S(=O)(=O)c1cc(Br)cc2c1N(C(C)=O)C(C)C2` (stereo not drawn) the value was 9%.
As to `CCOC(=O)c1cccc(NC(=O)CSc2nnc(-c3cccnc3)n2C)c1`, the “hERG current change (%, negative = inhibition) at 1uM” value is given as -13.9%.
Regarding `O=C(C1=C[C@@H](c2coc3ccccc3c2=O)C[C@@H](OCCCCO)O1)N1CCN(Cc2ccc3c(c2)OCO3)CC1`, the “hERG current change (%, negative = inhibition) at 1uM” value was -15.1%.
Take `N#CC1=C2SCCN2C(=O)C(C#N)C12CCCCC2` (stereo not drawn): the “hERG current change (%, negative = inhibition) at 1uM” value is given as -8.5%.
On to `COc1ccccc1CNC(=O)c1cc2ccccc2o1`, for which the “hERG current change (%, negative = inhibition) at 1uM” value was found to be 2.84%.
In the case of `CC(=O)c1ccc(NC(=O)NCc2ccc(F)cc2)cc1`, the “hERG current change (%, negative = inhibition) at 1uM” value is on record as 12.9%.
For `COc1ccc(OCC(=O)Nc2ccc(N3CCOCC3)c(Cl)c2)cc1` the value was -0.0984%.
